This is an account of results in the antibiotic and cytotoxicity screens of Wong et al. (2023).

The other results are listed elsewhere or left out.

The subject of the assay is S. aureus RN4220. Put plainly: growth inhibition call (relative growth <= 0.2). To be noted: 50 µM.
With `O=c1c(O)c(-c2cc(O)c(O)c(O)c2)oc2cc(O)cc(O)c12`, the growth inhibition call is “inactive”.

Turning to `C[C@]1(O)CC[C@@H]2C(C(=O)O)=CO[C@@H](O[C@@H]3O[C@H](COC(=O)/C=C/c4ccc(O)c(O)c4)[C@@H](O)[C@H](O)[C@H]3O)[C@@H]21`, the growth inhibition call was “inactive”.

In the case of `C[C@@H]1CCCCO[C@@H](CN(C)S(=O)(=O)c2cn(C)cn2)[C@H](C)CN([C@H](C)CO)C(=O)c2cc(NS(C)(=O)=O)ccc2O1`, the growth inhibition call is “inactive”.

For `C[C@@H]1CN([C@H](C)CO)C(=O)Cc2cc(NC(=O)Nc3cccc4ccccc34)ccc2O[C@H]1CN(C)S(=O)(=O)c1ccc(F)cc1`, the growth inhibition call was “inactive”.

Consider `CC(C)C#Cc1cnc2c(c1)C(=O)N([C@@H](C)CO)C[C@H](C)[C@@H](CN(C)C(=O)c1ccc3c(c1)OCO3)O2`, for which the growth inhibition call is “inactive”.

`C[C@H]1CN([C@@H](C)CO)C(=O)c2cc(C#CCN(C)C)cnc2O[C@H]1CN(C)C(=O)c1ccc2c(c1)OCO2`: the growth inhibition call is “inactive”.

Regarding `NC[C@@H]1CC(=O)N(c2ccccc2)C1`, the growth inhibition call is “inactive”.

For `COc1ccc(S(=O)(=O)Nc2ccc3c(c2)C(=O)N([C@H](C)CO)C[C@@H](C)[C@H](CN(C)S(=O)(=O)c2ccccc2)O3)cc1`, the growth inhibition call was “inactive”.

Turning to `C[C@@H]1CCCCO[C@H](CN(C)Cc2ccc3c(c2)OCO3)[C@@H](C)CN([C@@H](C)CO)C(=O)c2cc(NS(=O)(=O)c3ccccc3)ccc2O1`, the growth inhibition call was “inactive”.

Turning to `C[C@@H]1CCCn2cc(nn2)COCCNC1=O`, the growth inhibition call was “inactive”.

`COc1ccc(NC(=O)Nc2ccc3c(c2)C(=O)N([C@H](C)CO)C[C@H](C)[C@@H](CN(C)C(=O)Nc2c(C)noc2C)OCCCC[C@@H](C)O3)cc1`: the growth inhibition call was “inactive”.
